# The supplement of paper PMC8728848
# The list shows a part of the results.
# B1: SSR1 (Sclerotium rolfsii), A0A0M3KL30 (protein)
# chain: TYKITVRVYQTNPDAFFHPVEKTVWKYANGGTWTITDDQHVLTMGGSGTSGTLRFHADNGESFTATFGVHNYKRWCDIVTNLAADETGMVINQQYYSQKNREEARERQLSNYQVKNAKGRNFQIVYTEAEGNDLHANLIIG
# Assays:
# Experiment in all cases: glycan array binding signal (z-score within array); higher = stronger binding
# Settings in all cases: glycan notation: IUPAC condensed, linker removed
# [1] = target: GlcNAc(b1-4)GlcNAc(b1-4)GlcNAc(b1-4)GlcNAc(b1-4)GlcNAc
# In short: (§1)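 Negative Z-scores can be read as non-binding. The Z-score is calculated within each array and then averaged across arrays of one protein sequence at different concentrations or buffers and across linkers. Arrays, 3228 in all, were curated from the Consortium for Functional Glycomics database and kept only where the protein sequence was available.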
# [2] = target: GlcNAc(b1-4)GlcNAc(b1-4)GlcNAc(b1-4)GlcNAc(b1-4)GlcNAc(b1-4)GlcNAc
# In short: as §1
# [3] = target: GlcNAc(b1-4)[GlcNAc(b1-6)]GalNAc
# In short: as §1
# [4] = target: GlcNAc(b1-6)Gal(b1-4)GlcNAc
# In short: as §1
# GlcNAc(b1-6)GalNAc = target: GlcNAc(b1-6)GalNAc
# In short: as §1
# [5] = target: GlcNAc6S(b1-3)Gal(b1-4)GlcNAc
# In short: as §1
# Kdn(a2-3)Gal(b1-3)GalNAc = target: Kdn(a2-3)Gal(b1-3)GalNAc
# In short: as §1
# Kdn(a2-3)Gal(b1-3)GlcNAc = target: Kdn(a2-3)Gal(b1-3)GlcNAc
# In short: as §1
# Kdn(a2-3)Gal(b1-4)Glc = target: Kdn(a2-3)Gal(b1-4)Glc
# In short: as §1
# Kdn(a2-3)Gal(b1-4)GlcNAc = target: Kdn(a2-3)Gal(b1-4)GlcNAc
# In short: as §1
# [6] = target: Kdn(a2-3)Gal(b1-4)[Fuc(a1-3)]GlcNAc
# In short: as §1
# Kdn(a2-6)Gal(b1-4)GlcNAc = target: Kdn(a2-6)Gal(b1-4)GlcNAc
# In short: as §1
# [7] = target: Man(a1-2)Man(a1-2)Man(a1-3)Man
# In short: as §1
# [8] = target: Man(a1-2)Man(a1-2)Man(a1-6)[Man(a1-3)]Man
# In short: as §1
# Man(a1-2)Man(a1-3)Man = target: Man(a1-2)Man(a1-3)Man
# In short: as §1
# [9] = target: Man(a1-2)Man(a1-3)[Man(a1-2)Man(a1-6)]Man
# In short: as §1
# [10] = target: Man(a1-2)Man(a1-3)[Man(a1-2)Man(a1-6)]Man(a1-6)[Man(a1-2)Man(a1-2)Man(a1-3)]Man
# In short: as §1
# [11] = target: Man(a1-2)Man(a1-3)[Man(a1-2)Man(a1-6)]Man(a1-6)[Man(a1-2)Man(a1-2)Man(a1-3)]Man(b1-4)GlcNAc(b1-4)GlcNAc
# In short: as §1
# [12] = target: Man(a1-2)Man(a1-3)[Man(a1-6)]Man(a1-6)[Man(a1-2)Man(a1-3)]Man(b1-4)GlcNAc(b1-4)GlcNAc
# In short: as §1
# [13] = target: Man(a1-2)Man(a1-6)[Man(a1-3)]Man(a1-6)[Man(a1-2)Man(a1-2)Man(a1-3)]Man
# In short: as §1
# [14] = target: Man(a1-2)Man(a1-6)[Man(a1-3)]Man(a1-6)[Man(a1-2)Man(a1-2)Man(a1-3)]Man(b1-4)GlcNAc(b1-4)GlcNAc
# In short: as §1
# Man(a1-3)[Man(a1-6)]Man = target: Man(a1-3)[Man(a1-6)]Man
# In short: as §1
# [15] = target: Man(a1-3)[Man(a1-6)]Man(a1-6)[Man(a1-2)Man(a1-3)]Man(b1-4)GlcNAc(b1-4)GlcNAc
# In short: as §1
# [16] = target: Man(a1-3)[Man(a1-6)]Man(a1-6)[Man(a1-3)]Man
# In short: as §1
# [17] = target: Man(a1-3)[Man(a1-6)]Man(a1-6)[Man(a1-3)]Man(b1-4)GlcNAc(b1-4)GlcNAc
# In short: as §1
# [18] = target: Man(a1-3)[Man(a1-6)]Man(b1-4)GlcNAc(b1-4)GlcNAc
# In short: as §1
# [19] = target: Man(a1-3)[Man(a1-6)]Man(b1-4)GlcNAc(b1-4)[Fuc(a1-6)]GlcNAc
# In short: as §1
# Man(a1-6)Man = target: Man(a1-6)Man
# In short: as §1
# Man(b1-4)GlcNAc = target: Man(b1-4)GlcNAc
# In short: as §1
# MurNAc(b1-4)GlcNAc = target: MurNAc(b1-4)GlcNAc
# In short: as §1
# Neu5Ac(a2-3)Gal = target: Neu5Ac(a2-3)Gal
# In short: as §1
# [20] = target: Neu5Ac(a2-3)Gal(b1-3)GalNAc
# In short: as §1
# [21] = target: Neu5Ac(a2-3)Gal(b1-3)GalNAc(b1-3)Gal(a1-4)Gal(b1-4)Glc
# In short: as §1
# [22] = target: Neu5Ac(a2-3)Gal(b1-3)GalNAc(b1-4)Gal(b1-4)Glc
# In short: as §1
# [23] = target: Neu5Ac(a2-3)Gal(b1-3)GalNAc(b1-4)[Neu5Ac(a2-3)]Gal(b1-4)Glc
# In short: as §1
# [24] = target: Neu5Ac(a2-3)Gal(b1-3)GalNAc(b1-4)[Neu5Ac(a2-8)Neu5Ac(a2-3)]Gal(b1-4)Glc
# In short: as §1
# [25] = target: Neu5Ac(a2-3)Gal(b1-3)GalNAc6S
# In short: as §1
# [26] = target: Neu5Ac(a2-3)Gal(b1-3)GlcNAc
# In short: as §1
# [27] = target: Neu5Ac(a2-3)Gal(b1-3)GlcNAc(b1-2)Man
# In short: as §1
# [28] = target: Neu5Ac(a2-3)Gal(b1-3)GlcNAc(b1-2)Man(a1-3)[GlcNAc(b1-4)][Neu5Ac(a2-3)Gal(b1-3)GlcNAc(b1-2)Man(a1-6)]Man(b1-4)GlcNAc(b1-4)GlcNAc
# In short: as §1
# [29] = target: Neu5Ac(a2-3)Gal(b1-3)GlcNAc(b1-2)Man(a1-3)[Neu5Ac(a2-3)Gal(b1-3)GlcNAc(b1-2)Man(a1-6)]Man(b1-4)GlcNAc(b1-4)GlcNAc
# In short: as §1
# [30] = target: Neu5Ac(a2-3)Gal(b1-3)GlcNAc(b1-2)[Neu5Ac(a2-3)Gal(b1-3)GlcNAc(b1-4)]Man(a1-6)[Neu5Ac(a2-3)Gal(b1-3)GlcNAc(b1-2)Man(a1-3)]Man(b1-4)GlcNAc(b1-4)GlcNAc
# In short: as §1
# [31] = target: Neu5Ac(a2-3)Gal(b1-3)GlcNAc(b1-3)Gal(b1-3)GlcNAc
# In short: as §1
# [32] = target: Neu5Ac(a2-3)Gal(b1-3)GlcNAc(b1-3)Gal(b1-4)GlcNAc
# In short: as §1
# [33] = target: Neu5Ac(a2-3)Gal(b1-3)GlcNAc(b1-3)GalNAc
# In short: as §1
binder,measurement,setting,value
B1,glycan array binding signal (z-score),[1],0.847
same,glycan array binding signal (z-score),[2],0.686
same,glycan array binding signal (z-score),[3],-0.006
same,glycan array binding signal (z-score),[4],0.876
same,glycan array binding signal (z-score),GlcNAc(b1-6)GalNAc,1.03
same,glycan array binding signal (z-score),[5],-0.34
same,glycan array binding signal (z-score),Kdn(a2-3)Gal(b1-3)GalNAc,0.581
same,glycan array binding signal (z-score),Kdn(a2-3)Gal(b1-3)GlcNAc,-0.341
same,glycan array binding signal (z-score),Kdn(a2-3)Gal(b1-4)Glc,-0.338
same,glycan array binding signal (z-score),Kdn(a2-3)Gal(b1-4)GlcNAc,-0.338
same,glycan array binding signal (z-score),[6],-0.315
same,glycan array binding signal (z-score),Kdn(a2-6)Gal(b1-4)GlcNAc,-0.341
same,glycan array binding signal (z-score),[7],-0.337
same,glycan array binding signal (z-score),[8],-0.325
same,glycan array binding signal (z-score),Man(a1-2)Man(a1-3)Man,-0.334
same,glycan array binding signal (z-score),[9],-0.348
same,glycan array binding signal (z-score),[10],-0.346
same,glycan array binding signal (z-score),[11],-0.548
same,glycan array binding signal (z-score),[12],-0.326
same,glycan array binding signal (z-score),[13],-0.348
same,glycan array binding signal (z-score),[14],-0.322
same,glycan array binding signal (z-score),Man(a1-3)[Man(a1-6)]Man,-0.331
same,glycan array binding signal (z-score),[15],-0.304
same,glycan array binding signal (z-score),[16],-0.335
same,glycan array binding signal (z-score),[17],-0.33
same,glycan array binding signal (z-score),[18],0.429
same,glycan array binding signal (z-score),[19],-0.342
same,glycan array binding signal (z-score),Man(a1-6)Man,-0.323
same,glycan array binding signal (z-score),Man(b1-4)GlcNAc,-0.331
same,glycan array binding signal (z-score),MurNAc(b1-4)GlcNAc,-0.336
same,glycan array binding signal (z-score),Neu5Ac(a2-3)Gal,-0.338
same,glycan array binding signal (z-score),[20],1.24
same,glycan array binding signal (z-score),[21],-0.325
same,glycan array binding signal (z-score),[22],-0.271
same,glycan array binding signal (z-score),[23],-0.34
same,glycan array binding signal (z-score),[24],-0.341
same,glycan array binding signal (z-score),[25],1.65
same,glycan array binding signal (z-score),[26],-0.325
same,glycan array binding signal (z-score),[27],-0.35
same,glycan array binding signal (z-score),[28],-0.31
same,glycan array binding signal (z-score),[29],-0.317
same,glycan array binding signal (z-score),[30],-0.302
same,glycan array binding signal (z-score),[31],-0.349
same,glycan array binding signal (z-score),[32],-0.343
same,glycan array binding signal (z-score),[33],-0.21
